Reference: patent US20260008848A1, “ANTI-NECTIN-4 ANTIBODY, AND ANTIBODY-DRUG CONJUGATE AND USE THEREOF” (Bio-Thera Solutions, Ltd., priority 2022, published 2026)

Columns and labels:
[1] = molecular target: T1, human Nectin-4 extracellular antigen (Nectin-4-His) (Homo sapiens, UniProt Q96NY8); experiment: Affinity measurement by SPR (BIAcore T200, Protein A chip capture); format: binding
T1 construct: albumin signal peptide (replaces the native Nectin-4 signal peptide) (N); made in house
T1 sequence (Q96NY8 with tags, fused parts or gaps): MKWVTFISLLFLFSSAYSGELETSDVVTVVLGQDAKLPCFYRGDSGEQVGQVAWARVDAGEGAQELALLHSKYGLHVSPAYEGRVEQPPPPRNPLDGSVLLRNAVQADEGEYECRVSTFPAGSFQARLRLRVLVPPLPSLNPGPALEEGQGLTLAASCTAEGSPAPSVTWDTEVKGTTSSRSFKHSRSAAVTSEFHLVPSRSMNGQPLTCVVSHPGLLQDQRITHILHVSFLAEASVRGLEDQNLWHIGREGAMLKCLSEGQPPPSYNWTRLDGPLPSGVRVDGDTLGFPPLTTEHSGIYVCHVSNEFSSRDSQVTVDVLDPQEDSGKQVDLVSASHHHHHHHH
Method: The candidate antibodies (ASG-22 and ASG-AM) were analyzed for their affinity for the human Nectin-4 extracellular antigen using surface plasmon resonance (SPR) technology (BIAcore: GE Healthcare, T200).
The capture was conducted on a Protein A chip (Cat #29127556, GE Healthcare): Antibody dilutions ([…]) were directed through the experimental flow channels (Fc2 and Fc4) at a flow rate of 10 μL/min for 10 s. Then antigen Nectin-4-His (prepared from Example 1) dilutions at different concentrations (0 nM, 1.23 nM, 3.7 nM, 11.1 nM, 33.3 nM, and 100 nM) were sequentially introduced with the flow rate adjusted to 30 μL/min through the surfaces of the experimental flow channels (Fc2 and Fc4) and reference flow channels (Fc1 and Fc3) with 120 s of association and 180 s of dissociation. Finally, the chip regenerated in Glycine 1.5. Fitting and analysis were performed using BiaEvaluation 3.2, with a 1:1 model for the fitting.

[2] = molecular target: T1, human Nectin-4 extracellular antigen (Nectin-4-His); experiment: Affinity measurement by BLI (Octet QKe, Protein A biosensor); format: binding
Method: The affinity of candidate antibodies (ASG-22 and ASG-AM) for the human Nectin-4 extracellular antigen was detected using the bio-layer interferometry (BLI) technology on the Octet platform (Fortebio, Octet QKe).
Antibodies were loaded onto a Protein A biosensor (Fortebio, 18-5010) at a concentration of 20 μg/mL with a loading time of 60 s. Nectin-4-His antigen concentrations were set at 200 nM, 100 nM, 50 nM, 25 nM, and 0 nM. The antigen association time was 180 s, and the dissociation time was 200 s. Data were then processed and analyzed using Acquisition 8.2 to give affinity constants (see Table 4).

T-47D cells [3] = experiment: Binding of antibody to T-47D cells by FACS; parameters: species or system human; settings: 3-fold dilutions from 100 nM, 4° C.
Method: The binding activity of antibody ASG-AM to T-47D cells (human ductal breast carcinoma cells, sourced from the Cell Bank of the Chinese Academy of Sciences, Cat. No.: TCHu 87) was detected by FACS and compared with that of the reference antibody ASG-22. The EC50 of the binding of candidate antibodies to the cells was analyzed using the four-parameter method. The method is briefly described as follows: T-47D cells were digested with pancreatin. Each candidate antibody was serially 3-fold diluted from 100 nM and co-incubated with T-47D cells at 4° C. for 0.5-1 h. Subsequently, a PE-labeled anti-human Fc secondary antibody (Invitrogen, 12-4998-82) was added. The signal intensity of the red fluorescence was detected by a flow cytometer. Graphpad Prism was used for plotting and calculating the EC50.

T-47D cells [4] = experiment: Endocytosis assay by FACS (antibody remaining on cell surface); format: cell-based, human; settings: 10 μg/mL antibody
Method: The relative quantity of antibodies remaining on the cell surface after incubation at 37° C. for a certain period was detected by FACS to reflect the efficiency of endocytosis. The method is briefly described as follows: T-47D cells (human ductal breast carcinoma cells, sourced from the Cell Bank of the Chinese Academy of Sciences, Cat. No.: TCHu 87) were used. Each test antibody was adjusted to a concentration of 10 μg/mL and co-incubated with cells (at a density of 0.5×10^6 cells/mL) on ice for 1 h for binding. The cells were washed thrice with pre-cooled PBS and then incubated at 37° C. for 0 h, 2 h, and 4 h. The endocytosis reaction was terminated with 0.2% N3Na, and the cells were washed thrice with PBS. Subsequently, a PE-labeled anti-human Fc secondary antibody (Invitrogen 12-4998-82) was added, and the cells were incubated at 4° C. for 30 min. The red fluorescence signal was detected by a flow cytometer.

B1: ASG-AM: anti-Nectin-4 antibody; heavy chain SEQ ID NO: 12, light chain SEQ ID NO: 14 (antibody)
heavy: EVQLVESGGGLVQPGGSLRLSCAASGFTFSSYNMNWVRQAPGKGLEWVSYISSSSSTIYYADSVKGRFTISRDNAKNSLSLQMNSLRDEDTAVYYCARAYYYGMDVWGQGTLVTVSS[human IgG1 constant region not spelt out]
light: DIQMTQSPSSVSASVGDRVTITCRASQGISGWLAWYQQKPGKAPKFLIYAASTLQSGVPSRFSGSGSGTDFTLTISSLQPEDFATYYCQQAGPGWVFGQGTKVEIKRTVAAPSVFIFPPSDEQLKSGTASVVCLLNNFYPREAKVQWKVDNALQSGNSQESVTEQDSKDSTYSLSSTLTLSKADYEKHKVYACEVTHQGLSSPVTKSFNRGEC
[1]
  affinity as compared with the reference antibody ASG-22: significant increase in affinity
[1]; 1:1 model fit
  Ka: 298000 M⁻¹ s⁻¹
  Rmax: 197.9 RU
[1]; 1:1 model fit, dissociation rate
  Kd: 0.000535 s⁻¹
[2]
  Rmax: 0.6488
  affinity compared with the reference antibody ASG-22: significantly improved affinity
  kdis: 2.38e-05 s⁻¹
  kon: 89600 M⁻¹ s⁻¹
T-47D cells [3]
  binding curves to T-47D cells: substantially consistent
T-47D cells [4]; 37° C. for 0 h
  red fluorescence signal at 0 h: 23561.0
T-47D cells [4]; 37° C. for 2 h
  Endocytosis at 2 h: 45.98%
  red fluorescence signal at 2 h: 12727.3
T-47D cells [4]; 37° C. for 4 h
  Endocytosis at 4 h: 79.46%
  red fluorescence signal at 4 h: 4840
